# The supplement of paper PMC11417369
# ± gives the standard deviation of the averaged measurements. This is one part of the list.
# Test system: PfAP2-G AP2 domain (GST-tagged)
# Assay: gcPBM binding intensity (ln(normalized median fluorescence intensity)); higher = stronger DNA binding
# How it was run: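 GST-tagged P. falciparum DNA-binding domains produced in E. coli were incubated for 1 h on an Agilent 4 × 180k array of primer-extended double-stranded 36-bp intergenic genomic probes with negative controls. Binding intensity is the highest Masliner-normalised natural-log median intensity across replicate spots of either probe orientation, with bound protein detected by Alexa488 anti-GST antibody at 488 nm.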
row,Sequence,gcPBM binding intensity (ln)
1,TTTGAATTTTTTAACACACACATGTCTGGATATATA [CACACA_site1645],10.1 ± 0.28
2,TTATAGTATTTATAATGTACAAATATATTTTATTTT [XGTACX_site5015],10.6 ± 0.42
3,ATATTTATATTTTTTTGTACATATATAATTTTATAA [XGTACX_site4151],10.9 ± 0.44
4,ATATATATTTATATATGTACATATTAATATATATAT [XGTACX_site1144],11.2 ± 0.8
5,ATATATATATTTATAGTGCATTTATATTAAAATATC [GTGCAC_site9818],9.88 ± 0.38
6,TCAAATAGAAAATAAAGTACTTAATTTTTAGGAACA [XGTACX_site1446],11.3 ± 0.85
7,TTGAATATTTAAAAACGTACATAAAATTATTTGATT [XGTACX_site5422],11.3 ± 0.81
8,ATAAAAAAATCAGACACACACACGTAAACCCATACA [CACACA_site2773],10.4 ± 0.28
9,ACATATTTATATATGTGTACATAAATATTCTTTTAA [XGTACX_site8238],11.4 ± 1
10,ATATTAAGGTTTATATTTTAACTTATTATTTTATTC [CACACA_negctrl_site795],9.55 ± 0.15
11,GTAAAAAGATAATGAAGTACATTTTTTCATTTTTAT [XGTACX_site5579],11.1 ± 0.79
12,AAAAAAAAAAAACACACACACACACCCATATACATA [CACACA_site2664],10.2 ± 0.16
13,CATATCCTTACGAACTGTACAATATTAAGAATAAAA [XGTACX_site1651],10.9 ± 0.41
14,ATATATTCAATTCATACACACACAATTTAAGAATGA [CACACA_site9289],10 ± 0.11
15,ATTTATTTTTTTATCACACATTTGTGAAATGTGCAT [CACACA_site5869],9.93 ± 0.13
16,GTCTATAACTATTGCGCACACTTTAAAAAAAAAGAA [CACACA_site1003],10.7 ± 0.6
17,TAGAAGCATTGACACACACACATACATACACATACA [CACACA_site6802],10.2 ± 0.26
18,TATATATATATATAATGTACATAATAATAATACATC [XGTACX_site5587],11 ± 0.59
19,CTAGACTTTATTAATTGTACATATGTGTATTTTATA [XGTACX_site480],10.9 ± 0.61
20,AATACAGACAGACACACACACAAAATAAAATACAAA [CACACA_site245],10.2 ± 0.38
21,TCTTTTTTTTGAATTTGTACATAAGACAATAAAAAA [XGTACX_site4682],10.9 ± 0.59
22,CATCATAGAGTGGAGTGTACAAATATGTCAACATAT [XGTACX_site2264],10.9 ± 0.42
23,TTTTCCTTTACATAATGTACACAAAAAAAAAAAAAA [XGTACX_site716],11.3 ± 0.97

row,Sequence,gcPBM binding intensity (ln)
1,GTTACTGCATACATAACACACATATTCAAAACCCAT [CACACA_site5856],10.12 ± 0.042
2,TTTACACCCTAAAAATGTACAAGAAAGATTATATTA [XGTACX_site1102],10.8 ± 0.48
3,ATACTAAAGAAACACACACACATATATATATAGAAT [CACACA_site100],9.955 ± 0.064
4,AAAGCTTACATATACACACATACATAAATTCATAAA [CACACA_site2469],9.94 ± 0.12
5,TTTTTTTATTATACTAGTACATATATATACAGCACA [XGTACX_site3464],11.1 ± 0.8
6,AAAAAAAAAAAAGGAACACACAAGTAACAATAAATT [CACACA_site2481],10.2 ± 0.13
7,ATTTTTTTCCTAATGGTGCGAATAAATATCCATACC,10.2 ± 0.18
8,TTAACAGTAAAACACAGTACATATATACTTAAAACA [XGTACX_site1930],10.7 ± 0.47
9,TAATCTCATAAAACCGCACACACATAAAATTTGCAT [CACACA_site3890],10 ± 0.042
10,TTTTTAATAATCTCTCAAAATGTTCTTATATTTTAC [CACACA_negctrl_site1691],9.74 ± 0.13
11,TTGTTTGATATCTTTGTCACGAAAAAAATATATATA [GTGCAC_negctrl_site54],10.1 ± 0.21
12,TAAGGATAAAATAAATGTACATATGTAAAATTATTA [XGTACX_site4170],10.9 ± 0.58
13,GAGAAATGGGGACACACACACATATTATAGATATAT [CACACA_site6829],11.5 ± 0.83
14,TAAGAAAAAAGTAAATGTACAGAGAAAATTATCTAT [XGTACX_site7374],10.8 ± 0.47
15,ATTTATTACAAATGAATGCACTATATCTTAATTTTG,9.88 ± 0.014
16,ATATATTTCCTGAGGAGTACTATGAAAGACAAAAAA [XGTACX_site5628],11.4 ± 0.87
17,ATAATTTTGATTATCACACATATATATATATATATG [CACACA_site5882],10.04 ± 0.085
18,TAATTTAATAATTAGACACACATGTGGAAAATAAAA [CACACA_site5401],10.3 ± 0.16
19,TTTGTCATTTTATTATGTACTCAGCATATAGGGGGG [XGTACX_site505],11.7 ± 0.66
20,GATTTTTAAAATATCACACATAAAAAAAAAAAAAAA [CACACA_site5516],9.88 ± 0.71
21,AAAAAAATTCTGACTTGTACATATAAAATTTACAAA [XGTACX_site4408],11 ± 0.84
22,ACATATATATAAAGGTGTACACATATATATATATAT [XGTACX_site4779],11.7 ± 0.76
